The other results are listed elsewhere or left out. The list includes weakly bound sequences.

The test deals with MaxL homodimer (UniProt P61244). The test is described as follows: universal protein-binding microarray (PBM). To be noted: PBS-based mixture, 10 nM His-tagged protein dimer, 2% milk, 200 ng/uL BSA, 50 ng/uL salmon testes DNA, 0.02% TX-100; detection with Alexa 488 anti-His …; high values mean tight binding; most listed sequences are background and not binding sites; double strand, one strand shown.
Sequence of UniProt P61244 (P61244 whole entry): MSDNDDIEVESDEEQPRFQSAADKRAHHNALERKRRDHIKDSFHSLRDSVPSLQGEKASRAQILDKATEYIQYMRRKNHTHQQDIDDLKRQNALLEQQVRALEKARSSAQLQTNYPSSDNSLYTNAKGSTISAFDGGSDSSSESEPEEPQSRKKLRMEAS
Consider AATTATGA, for which the binding signal (normalized occupancy) worked out at 0.0791.
The value for AATCCCCC was 0.0813; that for ATCGTTTA was 0.0777; that for TCATCTCA was 0.0823.
For CATAAGGG, the binding signal (normalized occupancy) was found to be 0.0783.
The value for GGTCAGAA was 0.0719; that for ACGGGCCT was 0.0636; that for AGCATAGA was 0.0763.
The value for CCATGTCG was 0.0843; that for AATAGATC was 0.0772.
The value for CCAGCAGC was 0.075.
In the case of ATCATTTC, the binding signal (normalized occupancy) came out at 0.0749.
The value for CATTTATC was 0.0812; that for CTGAACAC was 0.0755; that for GGACAGAA was 0.0703.
In the case of AGGGACAA it was 0.0727; in that of ATGCCGTC, 0.0837; in that of GGTTCGGA, 0.0693.
The value for AAACGTTG was 0.0765.
Take CACCGTCC: the binding signal (normalized occupancy) is 0.0768.
In the case of CTGTTACC, the binding signal (normalized occupancy) came to 0.0806.
In the case of ACCTGCTG it was 0.0779; in that of GCAGATAC, 0.0761; in that of CCTACATA, 0.0791.
The value for AATTGCGC was 0.0728; that for ACGGAGCG was 0.067; that for ACTAGCGA was 0.0716.
Consider AGCTTGGA, for which the binding signal (normalized occupancy) was 0.0672.
For the sequence GTCAGCTA, the binding signal (normalized occupancy) was found to be 0.0744.
In the case of GCCTGCAA, the binding signal (normalized occupancy) came to 0.0704.
In the case of CTACAGGC it was 0.072; in that of GAGAGTCA, 0.0795.
In the case of ACGAAACC it was 0.0733; in that of ACAATCTC, 0.0769; in that of ACCCAGCT, 0.0699.
In the case of CCACTCAG it was 0.0756.
Regarding CTGTGCGA, the binding signal (normalized occupancy) turned out to be 0.0726.
The value for GGTATGTA was 0.0857; that for GCAACGAA was 0.0715; that for TAGACAGA was 0.0717.
For AGAGAGAT, the binding signal (normalized occupancy) turned out to be 0.0736.
AACTCTCG: the binding signal (normalized occupancy) stood at 0.0746.
In the case of ACGCATAT it was 0.0946; in that of CATGAACG, 0.0803.
The value for CGTCGTGA was 0.0754; that for GACTATAA was 0.0784.
For the sequence CCTCCCAG, the binding signal (normalized occupancy) was 0.0751.
In the case of CGGGTGAC it was 0.0779; in that of AGCCCGCA, 0.0756; in that of ATATATTA, 0.0867.
The value for CCGCCTGC was 0.0773; that for CGCGATAA was 0.075.
In the case of CTTAGCCA, the binding signal (normalized occupancy) was determined as 0.0761.
In the case of ATCTAACA it was 0.0854.
Take CCGCTGAC: the binding signal (normalized occupancy) was 0.0713.
In the case of ATGCACCG it was 0.0783; in that of ATTTTTCA, 0.0766.
In the case of ATTCAGCC it was 0.0751.
In the case of AGGACGGG it was 0.0771.
With TACCTCGA, the binding signal (normalized occupancy) was determined as 0.0739.
The value for AGGCCGTG was 0.0702; that for GATGTGAC was 0.0817.
The value for GTAACAAA was 0.0748; that for CAGGACGC was 0.0713.
The value for GTCCCAAC was 0.0676; that for ACTTTATC was 0.0731.
Consider AGTCGAAA, for which the binding signal (normalized occupancy) came to 0.0728.
In the case of AATTTGGC it was 0.069.
In the case of GAGCATTA it was 0.0805; in that of CGCCGGCC, 0.0647; in that of AGATGGTG, 0.0816.
As for CAGCGTAA, the binding signal (normalized occupancy) was 0.0706.
In the case of AGCAGTAG it was 0.0685.
As for AACCGGCA, the binding signal (normalized occupancy) was 0.0747.
With ATGGAAGC, the binding signal (normalized occupancy) turned out to be 0.0783.
The value for CAATGTCC was 0.0766; that for ATAGACTA was 0.0732.
In the case of AAATTGCC it was 0.0721.
The value for AATAGTCC was 0.0738; that for ATGCGGCC was 0.0851; that for ACGGTGGG was 0.0782.
As for GCAGTTGA, the binding signal (normalized occupancy) was 0.0722.
As to AATGTGTA, the binding signal (normalized occupancy) was determined as 0.0864.
The value for GGAGTTAA was 0.073; that for CCTAATGA was 0.0764; that for CTACAGGA was 0.0758.
The value for CTGTATCA was 0.0799.
In the case of GGTAATGA it was 0.0796.
For ATAGCCCA, the binding signal (normalized occupancy) was 0.0748.
For CAAAAATA, the binding signal (normalized occupancy) turned out to be 0.0833.
For the sequence ACTAAGGG, the binding signal (normalized occupancy) came out at 0.0765.
GCAAATGC: the binding signal (normalized occupancy) stood at 0.0773.
The value for GAAACCTC was 0.0722; that for GGAAGAGA was 0.0767.
In the case of CGAATTAA it was 0.0717; in that of AATTTTCC, 0.068; in that of ACGACCAA, 0.0716.
The value for CCCCGTTC was 0.0759.
Regarding CTCCCAGC, the binding signal (normalized occupancy) is 0.0698.
For the sequence CAGATGCA, the binding signal (normalized occupancy) was found to be 0.0876.
On to CCCTTCAG, for which the binding signal (normalized occupancy) turned out to be 0.0749.
Regarding ACGTGGCT, the binding signal (normalized occupancy) is 0.101.
AGATGGGA: the binding signal (normalized occupancy) was found to be 0.0801.
As to CTCGCACC, the binding signal (normalized occupancy) stood at 0.0733.
The value for CTGCGTTC was 0.0684; that for CATAATAC was 0.087.
CCTGCCAC: the binding signal (normalized occupancy) is 0.0775.
The value for CGTCAACG was 0.0744; that for AGCACGCC was 0.0846; that for TCGGCTAA was 0.073.
In the case of CTCCCCGC it was 0.0755; in that of ACTACCCA, 0.0805; in that of AGGAGGGG, 0.076.
With ATCGGCAT, the binding signal (normalized occupancy) was 0.0843.
In the case of CCGCTAAG it was 0.0719; in that of CTTACGCA, 0.0765; in that of AAGCCGGT, 0.0689.
The value for AGCAGACA was 0.0774.
As to GAGTTGCC, the binding signal (normalized occupancy) is 0.0729.
The value for CACCTTCG was 0.0726; that for CAAGAATA was 0.0754; that for CCCTCAGA was 0.0767.
In the case of ACCCCACA it was 0.0881; in that of CCTCCGGC, 0.0686.
For TAAATACA, the binding signal (normalized occupancy) was found to be 0.083.
In the case of GCGGTGAC it was 0.0745; in that of ACTGCAAT, 0.072; in that of CCAGTCCG, 0.0707.
CAACGCGG: the binding signal (normalized occupancy) amounted to 0.0764.
In the case of AGGAAAGA it was 0.0734; in that of GAGCGGGA, 0.0704.
In the case of CGTATCGA, the binding signal (normalized occupancy) came out at 0.0813.
As to ACGTGCTC, the binding signal (normalized occupancy) turned out to be 0.108.
In the case of AAGGGAGG it was 0.0743; in that of GGGGGGGA, 0.0854.
Regarding ATATTCCG, the binding signal (normalized occupancy) came out at 0.072.
The value for AGCGTAAC was 0.0706.
CCCGTAGA: the binding signal (normalized occupancy) turned out to be 0.0719.
Consider CCCAACAG, for which the binding signal (normalized occupancy) stood at 0.0721.
On to ACAACACA, for which the binding signal (normalized occupancy) worked out at 0.0849.
The value for CCCTTTGC was 0.0731; that for CGGCTTTC was 0.0688.
In the case of GCCGCGAC it was 0.0664; in that of CCCAATAA, 0.0796; in that of TCGCCACA, 0.0841.
In the case of AATGGTGC it was 0.0795; in that of ACGCGAAG, 0.0765.
Regarding ATCAACTC, the binding signal (normalized occupancy) was 0.0754.
In the case of CTTCAAAC it was 0.0723.
The value for ATAATACC was 0.08; that for CGCCTATA was 0.0793; that for AATGGATC was 0.0762.
The value for ATGCCTGC was 0.0786; that for CAAAGCTG was 0.068; that for ATTAGGAA was 0.0763.
Turning to CGGCGGAA, the binding signal (normalized occupancy) turned out to be 0.0664.
As for AGCAAAAA, the binding signal (normalized occupancy) was found to be 0.075.
With ACCGCCAG, the binding signal (normalized occupancy) is 0.0659.
Regarding ACGCGAGC, the binding signal (normalized occupancy) turned out to be 0.0807.
For GAAAAAGC, the binding signal (normalized occupancy) was 0.0688.
For the sequence GTGAGAAC, the binding signal (normalized occupancy) came to 0.0711.
The value for ATGAATAG was 0.0817; that for AGTATTTG was 0.0723; that for GTCGAGAA was 0.0729.
For the sequence GACTTGAC, the binding signal (normalized occupancy) is 0.0742.
Turning to ATTCTCTG, the binding signal (normalized occupancy) was found to be 0.0764.
The value for CGCCTTCC was 0.0727; that for GCCGAAGA was 0.0694; that for AACGACAA was 0.0714.
On to ATCCCGCA, for which the binding signal (normalized occupancy) worked out at 0.0795.
The value for GCTGAAAA was 0.0769; that for CTTTGGCA was 0.0726.

(Values after article PMC4242493.)
